For one assay, the system named is SNU-5 cells. The experiment in a line: flow immunofluorescence, positive cells in parental and sphere cells. The assay is classed as binding, human. As to the method: (§1) The human gastric cancer cell line SNU-5 and BGC-823 cells were cultured for 5 days in a serum-free manner, and the Hetumomab^+ cells in the parental cells and in the cells from sphere culture were detected by viable cell flow fluorescence cytometry. […] That is, after the serum-free culture, Hetumomab^+ cells of the gastric cancer cell line were enriched.
(§2) As described above, four cell lines, SNU-5, BGC-823, MHCC-97L, and BEL7402 V13, were used to harvest both parental cells and tumor-stem-cell-rich sphere cells. […] The results are as follows:
(§3) According to the aforementioned method, four cell lines, SNU-5, BGC-823, MHCC-97L, and BEL7402 V13, were used to harvest both parental cells and tumor-stem-cell-rich sphere cells. […]

Another assay concerns BGC-823 cells. The assay is described as above. The assay is classed as binding, human. On the procedure:
as §1, §2, §3

The subject of assay [1] is target antigen of Hetumomab on the surface of living cells. The experiment in a line: live cell immunofluorescence staining of tumor cell lines. The assay is classed as binding, human. The following applies: MHCC97L, Bel7402-V13, A549, SPCA-1, SNU-5, BGC-823. As to the method: The expression of monoclonal antibody Hetumomab target antigen on the surface of living cells in various human tumor cell lines such as liver cancer, lung cancer and gastric cancer cell lines was detected by conventional viable cell immunofluorescence staining. The specific technical methods are as follows: cells were grown on slides or inoculated in a 96-well culture plate (4×10^3 cells/well) and grown to 60% to 70% of the full plate, then washed with serum-free culture fluid twice, washed with PBS once. Primary antibody (hybridoma supernatant or purified antibody) was added (with mouse anti-α-tublin antibody (dilution: 1:1000) as control for cell permeability, and the normal mouse IgG, SP2/0 supernatant, PBS as negative control), and then incubated at room temperature for 1 h; washed with the live cell washing liquid (PBS containing 1% BSA) for 5 times and 5 min each time, and then fixed for 15 min with 4% paraformaldehyde at room temperature; washed with fix cell washing liquid (PBS containing 0.1% BSA, 0.05% tween-20) for 5 times and 5 min each time. […] Membrane fluorescence staining observed in some cells was deemed as positive.

The subject of assay [2] is target antigen of Hetumomab in human lung cancer tissues. The experiment in a line: immunohistochemistry of lung tissues. Type of assay: binding. The text has this:
By using conventional immunohistochemical techniques, the expression of the target antigen of Hetumomab in many human liver cancer, lung cancer, gastric cancer patients and other related tissues was detected by taking Hetumomab as the primary antibody, and the anti-mouse antibody as the secondary antibody.
By using Hetumomab as the primary antibody, the expression of the target antigen of Hetumomab was detected in human lung cancer tissues of 160 cases, para-carcinoma tissues of 32 cases, and normal lung tissues of 3 cases.

Another assay concerns Bel7402-V13 sphere cells. Description: Transwell invasion inhibition. Type of assay: cell-based, human. On the procedure:
Hetumomab^+ cells, parental cells and Hetumomab^− cells were isolated from human liver cancer Bel7402-V13 sphere cells cultured for 5 days by flow sorting. The sorted cells were seeded in the same amount in a Transwell chamber previously coated with Matrigel gel, and fixed after 24 hours, to observe the number of cells invading through the membrane under a microscope. […] Therefore, Hetumomab^+ cells have stronger invasion ability than the parental cells and Hetumomab^− cells.
High invasiveness is another important biological feature of cancer stem cells.

For assay [3], the system named is membrane surface antigens of T3A-A3 and MHCC97L sphere cells. Description: hybridoma screening by cell immunofluorescence. Type of assay: binding, human. To be noted: T3A-A3 line and MHCC97L sphere cells. On the procedure:
The serum-free suspension medium was DMEM/F12 (1:1) culture medium containing 20 ng/mL EGF, 20 ng/mL bFGF, B27 added at a ratio of 1:50, 10 ng/mL LIF, 2 mmol/mL glutamine, 1 p/mL Heparin. The cells were washed once before culturing with the serum-free medium. The sphere cells of human liver cancer stem cell (human tumor pluripotent stem cell) line T3A-A3 cultured in the serum-free suspension medium were gently blown into single cells and seeded into a 96-well plate at 2000 cells/well. After culturing for 24 h in the serum-free medium, the cells were washed with PBS containing 1% BSA, and incubated for 2 hours at room temperature after adding 1004 culture supernatant of one hybridoma clone to each well. […] After washing with PBS containing 1% BSA for 5 times, fluorescence microscopy was performed under a fluorescence microscope to determine the reaction of each monoclonal antibody hybridoma supernatant in the monoclonal antibody library with the human liver cancer stem cell (human tumor pluripotent stem cell) line T3A-A3. It can be observed that some cells had fluorescent staining, which made them determined as positive, and mouse monoclonal antibodies capable of binding to the membrane surface antigens of the human liver cancer stem cell (human tumor pluripotent stem cell) line T3A-A3 were initially screened out. […]

Assay [4] concerns ESA+ stem cells of Bel7402-V13. Description: two-color flow fluorimetry co-staining with ESA. The assay is classed as binding, human. The text has this: In order to detect liver cancer stem cells in human liver cancer cell line Bel7402-V13 cells reconginized by monoclonal antibody Hetumomab, which are also ESA and CD90 marker positive, we used two-color flow fluorimetry to stain the human liver cancer cell line Bel7402-V13 cells after culture for 5 days in a serum-free medium.
That is, Hetumomab recognized 40.2% of ESA^+ stem cells. Human liver cancer MHCC97L cells cultured for 5 days in a serum-free medium were stained.

Values joined by “and” are separate entries in the source; they are usually repeats but may differ in a detail not shown here. Identical values can stand only once.

B1: Hetuximab: human-mouse chimeric antibody derived from Hetumomab; heavy chain SEQ ID NO:9, light chain SEQ ID NO:10 (antibody)
heavy: QVTLKESGPGILQPSQTLSLTCSFSGFSLSTSGMGVSWIRQPSGKGLEWLAHIYWDDDKRYNPSLKSRLTISKDSSNNQVFLKITSVDTADTATYYCARSFYYYANNSFAYWGQGTLVTVSS[human IgG1 constant region left out here]
light: DIVMTQAAFSNPVTLGTSASISCRSSKSLLHSNGITYLYWFLQKPGQSPQLLIYQMSNLASGVPDRFSSSGSGTDFTLRISRVEAEDVGVYYCAQNLELYTFGGGTKLEIKRTVAAPSVFIFPPSDEQLKSGTASVVCLLNNFYPREAKVQWKVDNALQSGNSQESVTEQDSKDSTYSLSSTLTLSKADYEKHKVYACEVTHQGLSSPVTKSFNRGEC
modifications: Hetuximab chimeric antibody heavy chain amino acid sequence; Hetuximab chimeric antibody light chain amino acid sequence
For the molecule B1, in the assay on SNU-5 cells (SNU-5, Table 26), the “positive rate, Parental Cells” value is 7.92% and the “positive rate, Sphere Cells” value came out at 11%. In the assay with SNU-5 cells (SNU-5, Table 32), the “positive rate, Parent” value is 4.35% and 3.68%; the “positive rate, Sphere” value is 7.66% and 6.24%. Besides, in the assay on BGC-823 cells (BGC-823, Table 26), the “positive rate, Parental Cells” value is given as 5.5% and the “positive rate, Sphere Cells” value was 6.8%. Also, in the assay with BGC-823 cells (BGC-823, Table 32), the “positive rate, Parent” value was 4.12% and 3.28%; the “positive rate, Sphere” value is 6.55% and 5.39%.

B2: Hetumomab: mouse monoclonal antibody (IgG1, κ) against human tumor stem cells, hybridoma CGMCC NO. 12251; VL SEQ ID NO:1, VH SEQ ID NO:5 (antibody, V domains shown)
VH: QVTLKESGPGILQPSQTLSLTCSFSGFSLSTSGMGVSWIRQPSGKGLEWLAHIYWDDDKRYNPSLKSRLTISKDSSNNQVFLKITSVDTADTATYYCARSFYYYANNSFAYWGQGTLVTVSS
VL: DIVMTQAAFSNPVTLGTSASISCRSSKSLLHSNGITYLYWFLQKPGQSPQLLIYQMSNLASGVPDRFSSSGSGTDFTLRISRVEAEDVGVYYCAQNLELYTFGGGTKLEIK
modifications: Hetumomab heavy chain variable region; Hetumomab light chain variable region
Take B2: the “target antigen on the surface of living cells” value in assay [1] is listed as “expressed on the surface of living cells”. Further, in assay [2] (Lung Cancer Para-carcinoma Tissue), the “Proportion of Positive Cases (%)” value stood at 6.25%. In addition, the “Proportion of Positive Cases (%)” value in assay [2] (Lung Cancer Tissue, 160 cases) was 82.5%. In assay [2] (Normal Lung Tissue), the “Proportion of Positive Cases (%)” value was determined as 0%. Besides, in the assay on Bel7402-V13 sphere cells (Hetumomab 0.5 mg/ml), the “number of invasive cells” value is 148±16.4 /field of vision. In the assay with Bel7402-V13 sphere cells (Hetumomab 0.5 mg/ml vs PBS), the “inhibition rate of invasion” value was 50.8%. For the same molecule, in the assay on SNU-5 cells (SNU-5, Table 6), the “Fold Enrichment” value turned out to be 2.13; the “ratio of positive cells, Cells from Sphere Culture” value is reported as 7.19%; the “ratio of positive cells, Parental Cells” value was determined as 3.38%. Further, in the assay on SNU-5 cells (SNU-5, Table 26), the “Fold Enrichment” value stood at 1.4; the “positive rate, Parental Cells” value turned out to be 6.91%; the “positive rate, Sphere Cells” value is 9.75%. Also, in the assay with BGC-823 cells (BGC-823, Table 6), the “Fold Enrichment” value worked out at 2.53; the “ratio of positive cells, Cells from Sphere Culture” value turned out to be 7.45%; the “ratio of positive cells, Parental Cells” value stood at 2.95%. For the same molecule, in the assay on BGC-823 cells (BGC-823, Table 26), the “Fold Enrichment” value is reported as 1.2; the “positive rate, Parental Cells” value is listed as 4.3%; the “positive rate, Sphere Cells” value amounted to 5%. Further, the “binding to membrane surface antigens of tumor stem cells” value in assay [3] was “bound to the membrane surface antigens”. For the same molecule, in assay [4] (Bel7402-V13), the “Co-staining ratio with ESA” value amounted to 3.63% and the “share of ESA+ stem cells recognized” value is reported as 40.2%. Moreover, in assay [4] (Bel7402-V13, 5 days serum-free), the “Hetumomab+ cell ratio” value came out at 8.52%.

For the origin of these results see patent US20210147571A1, “MONOCLONAL ANTIBODY TARGETING HUMAN TUMOR STEM CELLS AND USE THEREOF” (Suzhou Bojuhua Biomedical Technology Co. Ltd, priority 2017, published 2021).
